Measured values as given in article PMC4336329 (PLoS ONE, 2015).
About 2,200 (0.71%) of roughly 310,000 compounds showed an effect of 50% or more. The effect is printed as a negative number. Some of the results follow.

Target: human ether-à-go-go-related gene (hERG) potassium channel (human, UniProt Q12809)
Assay: primary screen, population patch clamp on CHO cells stably expressing hERG

Chain of human ether-à-go-go-related gene (hERG) potassium channel (Q12809 whole entry, looked up): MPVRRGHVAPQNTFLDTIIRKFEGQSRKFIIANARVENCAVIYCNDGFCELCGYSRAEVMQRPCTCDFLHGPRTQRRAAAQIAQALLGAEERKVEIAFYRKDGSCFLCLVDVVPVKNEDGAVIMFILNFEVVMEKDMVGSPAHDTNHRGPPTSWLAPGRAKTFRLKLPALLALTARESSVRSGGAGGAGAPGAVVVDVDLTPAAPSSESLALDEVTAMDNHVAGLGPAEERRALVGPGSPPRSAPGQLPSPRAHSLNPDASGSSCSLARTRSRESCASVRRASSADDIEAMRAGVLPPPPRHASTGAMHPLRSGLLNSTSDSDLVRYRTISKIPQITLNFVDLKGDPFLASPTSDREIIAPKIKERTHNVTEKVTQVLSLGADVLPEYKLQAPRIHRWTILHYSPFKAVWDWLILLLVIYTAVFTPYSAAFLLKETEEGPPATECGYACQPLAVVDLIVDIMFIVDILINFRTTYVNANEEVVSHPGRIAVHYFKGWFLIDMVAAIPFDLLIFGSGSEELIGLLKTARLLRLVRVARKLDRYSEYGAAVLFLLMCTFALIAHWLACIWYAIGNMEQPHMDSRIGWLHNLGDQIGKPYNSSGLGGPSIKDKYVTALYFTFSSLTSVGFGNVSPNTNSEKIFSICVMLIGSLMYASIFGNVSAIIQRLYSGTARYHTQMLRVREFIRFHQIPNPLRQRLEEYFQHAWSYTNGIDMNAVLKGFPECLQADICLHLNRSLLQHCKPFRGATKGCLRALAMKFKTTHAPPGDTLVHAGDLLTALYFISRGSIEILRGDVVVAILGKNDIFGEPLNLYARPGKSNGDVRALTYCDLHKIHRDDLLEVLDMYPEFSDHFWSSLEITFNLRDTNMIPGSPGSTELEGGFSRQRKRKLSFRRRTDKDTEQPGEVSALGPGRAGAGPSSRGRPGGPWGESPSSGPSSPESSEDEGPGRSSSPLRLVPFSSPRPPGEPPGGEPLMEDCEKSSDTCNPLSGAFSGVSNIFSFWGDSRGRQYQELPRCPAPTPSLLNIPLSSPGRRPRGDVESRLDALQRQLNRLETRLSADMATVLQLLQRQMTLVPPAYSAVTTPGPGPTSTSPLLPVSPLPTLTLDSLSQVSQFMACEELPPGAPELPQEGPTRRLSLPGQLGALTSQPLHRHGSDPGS

| SMILES | hERG current change (%, negative = inhibition) at 1uM |
| --- | --- |
| Cc1ccc(NC(=O)CSc2nc3c([nH]c4ccccc43)c(=O)n2C)cc1 | 7.78% |
| COc1cc(OC)cc(C(=O)Nc2ccc(-c3nc4ccccc4o3)cc2)c1 | 0.655% |
| O=c1cnnc(N/N=C/c2cccs2)[nH]1 | 12.9% |
| O=C(O)c1ccc(NCc2ccncc2)cc1 | -8.36% |
| Cc1ccc(-n2nc3c(N4CCC(C(=O)NCc5cccc(F)c5)CC4)nnc(C)c3c2C)cc1 | 11.9% |
| Cc1ccc(CCNC(=O)CCc2nc3ccccc3[nH]2)cc1 | -3.85% |
| c1cc(-c2nnn(CCOCCn3nnc(-c4ccncc4)n3)n2)ccn1 | 8.91% |
| CC(=O)Nc1ccc(OC(=O)c2cc3ccccc3oc2=O)cc1 | -3.56% |
| O/N=C/c1cc(Br)cs1 | 12.7% |
| C(=C\c1ccccc1)/C=N/N1CCN(Cc2ccccc2)CC1 | 4.41% |
| CCCn1c(NC(=O)C2CCN(C(=O)c3ccc(F)cc3)CC2)nc2ccccc21 | -8.4% |
| COc1ccccc1NC(=O)CSc1nc2c(oc3ccccc32)c(=O)n1C | 10.2% |
| O/N=C1/CCc2nonc2/C1=N/O | -4.66% |
| COc1cccc(-c2cn(C[C@H]3CC[C@@H]([C@@H]4CC[C@H](Cn5cc(-c6cccc(OC)c6)nn5)O4)O3)nn2)c1 | -21.1% |
| COc1ccc(-c2cc(C)no2)cc1S(=O)(=O)N1CCCCC1 | 11.3% |
| Cn1c(=O)c(=O)n(C)c2cc([N+](=O)[O-])c([N+](=O)[O-])cc21 | 13.1% |
| COc1ccc(CCC(=O)N2CCc3ccccc32)cc1 | -8.55% |
| COc1cc(OC)c(C(=O)O/N=C(\N)c2ccccc2)cc1OC | 9.78% |
| COC(=O)c1cnn(C(=O)c2ccccc2Br)c1N | 2.87% |
| NC(=O)C1(N2CCCCC2)CCN(c2ccc3nnc(-c4ccccc4)n3n2)CC1 | 0.0345% |
| CCN(Cc1ccccc1)C(=O)COC(=O)c1cc(Cl)nc(Cl)c1 | 14.5% |
| COc1ccc(C(c2nnnn2CCc2ccccc2)N2CCN(C3CCCC3)CC2)cc1OC.Cl (centres unmarked) | -20.8% |
| CC(C)N(CC(N)=O)C(=O)c1sc2cc(F)ccc2c1Cl | 8.46% |

| SMILES | hERG current change (%, negative = inhibition) at 1uM |
| --- | --- |
| C(=N\N1CCN(c2ccccc2)CC1)/c1ccccc1 | 7.61% |
| COC(=O)C(C)N=Cc1ccccc1 (centres unmarked) | 10% |
| CCCOc1ccc(/C=N/Nc2cc(N3CCOCC3)ncn2)c(O)c1 | 18.2% |
| Clc1ccc(CN(CC2CCCO2)C(c2cccs2)c2nnnn2C2CCCC2)cc1 (centres unmarked) | 7.02% |
| C(=N\N1CCN(C2c3ccccc3-c3ccccc32)CC1)/c1ccncc1 | 8.08% |
| COC(=O)C(Cc1ccc(O)cc1)NC(=O)c1ccccc1 (centres unmarked) | 8.67% |
| Cc1nc(NC(=O)c2cncc(Br)c2)ccc1Br | 8.02% |
| O=[N+]([O-])c1cccc(/C=N/Nc2ncc(Br)cn2)c1 | 19.4% |
| Cc1cccc(N(CC(=O)N2CCOCC2)S(C)(=O)=O)c1 | 10.5% |
| O=C(CC1Nc2cccc3cccc(c23)NC1=O)Nc1ccccc1 (centres unmarked) | 6.48% |
| O=C1CNC(=O)N1Cc1ccc(Br)cc1 | 3.57% |
| CCCc1[nH]nc2c1C(c1ccc(OC(=O)N3CCOCC3)c(OC)c1)C(C#N)=C(N)O2 (centres unmarked) | 10.7% |
| O=C(NCCc1ccccc1)C(c1ccccc1F)N(C(=O)c1csnn1)C1CC1 (centres unmarked) | 10.4% |
| C/C=C/C(=O)OCC(=O)Nc1ccc(C)c(S(=O)(=O)N(C)C)c1 | 10.7% |
| CCNc1nc(OC)nc(SCC(N)=O)n1 | 16.4% |
| COc1cc(/C=C2\SC(=S)N(Nc3ccccc3)C2=O)cc(OC)c1OC | 1.08% |
| CCOP1(=S)Oc2cc3c(cc2C(C(=O)OC)(C(F)(F)F)O1)OCO3 (centres unmarked) | 5.27% |
| Cc1nc(C)c(-c2ccc(SCc3ccccc3F)nn2)s1 | 14.6% |
| CCSc1nnc(-c2cccs2)o1 | 12.2% |
| CCCc1cc(=O)n2[nH]c(C)c(-c3ccc(OC)cc3)c2n1 | 8.54% |
| CCOC(=O)CSc1nc(N2CCOCC2)c2c(c1C#N)CC(C)(C)OC2 | 4.1% |
| Cc1ccc(NS(=O)(=O)c2ccc(OCC(=O)NCC3CCCO3)cc2)cc1 (centres unmarked) | 5.92% |
| CC(C)c1ccc(NC(=O)COC(=O)/C=C/c2cccc([N+](=O)[O-])c2)cc1 | 6.15% |

| SMILES | hERG current change (%, negative = inhibition) at 1uM |
| --- | --- |
| COCCn1c(=O)[nH]c(=O)c2cc(C(=O)c3cc(Cl)ccc3O)cnc21 | 3.25% |
| O=C(COC(=O)c1ccc(Br)o1)Nc1nc2ccccc2s1 | -4.47% |
| Nc1c(-c2ccc(F)cc2)cnn1C1CCS(=O)(=O)C1 (centres unmarked) | 7.06% |
| O=C(C(Sc1ccccc1)c1ccccc1)N1CCOCC1 (centres unmarked) | 4.17% |
| Cc1ccc(-c2n[nH]c(=O)c3ccccc23)cc1S(=O)(=O)Nc1ccc(F)cc1 | 13.3% |
| CC(CC(F)(F)F)N1CCC(n2nccc2NC(=O)CCOc2ccccc2)CC1 (centres unmarked) | 7.12% |
| COc1ccc(/C=C/C(=O)NC(=S)NCc2ccccc2)cc1OC | 11.8% |
| O=C(NCC1CCCO1)c1ccc(COc2ccccc2)cc1 (centres unmarked) | -5.37% |
| O=C(N=C1SC2CS(=O)(=O)CC2N1c1ccccc1)C1CC1 (centres unmarked) | 20.5% |
| Cc1ccc(S(=O)(=O)N2CCCC(c3nc(-c4ccc(C)o4)no3)C2)cc1 (centres unmarked) | 16% |
| CCCCS/C(=C(/C#N)C(N)=O)c1cc2c([nH]1)CCCC2 | 4.58% |
| CCn1c(C)nc2cc(C(=O)N/N=C/c3ccc(OC)cc3)ccc21 | -6.56% |
| Cc1ccccc1NC1c2ccccc2C(=O)N1Cc1ccco1 (centres unmarked) | 10.8% |
| Cn1c(C2CCCCC2)nc2ccccc21 | 9.64% |
| O=C(c1ccc2c(c1)OCO2)N1CCN(c2ccccc2F)CC1 | 6.98% |
| Cl.c1ccc(CC2CNc3ccccc3CN2)cc1 (centres unmarked) | 9.82% |
| O=C(/C=C/c1ccc(F)cc1)c1cc(Br)ccc1O | 13% |
| CCOC(=O)[C@H]1[C@H]2COc3ccc(OC)cc3[C@@H]2N2C(=O)CN(CCc3c[nH]c4ccccc34)C(=O)[C@@]12C | 10.8% |
| CC1CN(C(=O)c2cc3cc([N+](=O)[O-])ccc3s2)CC(C)O1 (centres unmarked) | -0.52% |
| Cc1ccccc1C(=O)NNC(=O)c1ccc(Br)cc1 | -1.2% |
| COc1cc(/C=N/Nc2ccccc2[N+](=O)[O-])cc(OC)c1O | 6.81% |
| COc1ccccc1N1CCN(C2CCCN(C(=O)c3ccoc3C)C2)CC1 (centres unmarked) | 7.21% |
| CCC(C)(C)NC(=O)C(c1ccc(OC)cc1)N(CC1CCCO1)C(=O)CCC(=O)Nc1cc(C)on1 (centres unmarked) | 0.889% |

| SMILES | hERG current change (%, negative = inhibition) at 1uM |
| --- | --- |
| CCOC(=O)c1cc(NC(=O)Nc2cc(C)ccn2)c(C)nc1C | 9.8% |
| Cc1cc(NC(=O)NCc2ccccc2)c(=O)n(Cc2ccc(F)cc2)c1 | 21.1% |
| COCCn1c(SCc2cc(=O)n3ccsc3n2)nnc1-c1ccncc1 | 13.8% |
| COc1cccc(CN(C)Cc2cc(=O)oc3c(C)c(C)ccc23)c1 | 14.1% |
| Cc1nc(CN(C)C(=O)c2cc(COc3ccc4ncccc4c3)on2)cs1 | 6.62% |
| COc1c(F)c(F)c(C(=O)Nc2ccccc2N2CCN(C(=O)C(C)C)CC2)c(F)c1F | 10.4% |
| Br.N=C1CCCN1CC(=O)c1ccc(Cl)cc1 | 6.92% |
| O=C(O)CS/C(=C\c1ccc(F)cc1)c1nc2ccccc2s1 | 3.35% |
| COC(=O)c1cn(NC(=O)/C=C/c2cccc(OC)c2OC)c(=O)c2ccccc12 | 6.73% |
| Cc1nn(C)c(C(=O)Sc2cccc(Cl)c2)c1[N+](=O)[O-] | 15.7% |
| COc1ccc([N+](=O)[O-])cc1N(CC(O)CN1CCCCC1)S(=O)(=O)c1ccc(C)cc1 (centres unmarked) | -17.7% |
| CCCCNC(=O)C1CCC(CNS(=O)(=O)c2cccc3nsnc23)CC1 (centres unmarked) | 12.1% |
| CCCC(CCC)C(=O)O | 13.6% |
| CC(C(=O)Nc1cccnc1)n1cc([N+](=O)[O-])cn1 (centres unmarked) | 14.7% |
| O=C(CCN1CCOCC1)Nc1ccc2c(c1)CCC2 | 3.78% |
| CCOC(=O)N1CCN(C(=O)CCCn2c(=S)[nH]c3ccsc3c2=O)CC1 | 10.7% |
| O=C(COC(=O)C1CCCCC1)Nc1cc([N+](=O)[O-])ccc1F | 20.6% |
| O=C(NCCN1CCCCC1)Nc1cccc(Cl)c1Cl | 6.05% |
| Cc1ccc(N(C)S(=O)(=O)c2ccc(C)cc2)cc1 | 2.74% |
| COc1ccc(C2CC(=O)c3cnc(NC(=O)c4ccco4)nc3C2)cc1 (centres unmarked) | 11.5% |
| O=C(N/N=C/c1cccnc1)C12CC3CC(CC(C3)C1)C2 | 17.9% |
| O=C(c1cccc2ccccc12)N1CCCCC1 | 12.6% |
| CN(Cc1ccccc1Cl)C(=O)c1cnccc1C(F)(F)F | 9.94% |
